Results reported in PubChem BioAssay AID1347073 (National Center for Advancing Translational Sciences (NCATS), 2019).
The campaign covered roughly 45,000 compounds. About 200 (0.44%) were called active. Not shown: some 7% with an inconclusive outcome. The call rests on the fitted dose curve; in most records, active means well fitted activation curve with a large enough effect; inconclusive means small, poorly fitted or top-dose-only effect; inactive means no such curve, though single readings can be large or run the other way. The list shows a part of the results.

Experiment: qHTS of TDP-43 Inhibitors: NCGC Sytravon Library Screen; further: 0% is about no effect; nearly all actives have a fitted effect of over 55% in size
Conditions: yeast TDP-43 toxicity rescue, BacTiter-Glo growth, 24 h; series mostly up to 46.1 µM; growth rescue (activation): at the top concentration
Outline: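 TDP-43-expressing yeast, pregrown in raffinose, seeded at OD600 0.02 in galactose medium with compound for 24 hr at 30 deg C. Growth read by BacTiter-Glo luminescence, so rescue of toxicity appears as activation.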

Compound | growth rescue (activation)
CCCNC(=O)C1CCN(S(=O)(=O)c2cccc3nonc23)CC1 | inactive: -0.796%
COc1ccc(NC(=O)Cn2nnc(-c3nc(-c4ccncc4)no3)c2N)cc1OC | inactive: 12.2%
COc1cc(NC(=S)NCCN2CCOCC2)cc(OC)c1 | inactive: 12.4%
COc1ccc(CNC(=O)c2nn(-c3ccccc3)cc2OC)cc1 | inactive: -1.76%
CCn1cc(CN2CCC(n3nccc3NC(=O)c3cccc(F)c3)CC2)c(C)n1 | inactive: -8.04%
CC(=O)N1N=C(c2ccc(Cl)cc2)OC1(C)C | inactive: 1.4%
Cc1cc(C(=O)N2CCC2(C)C(=O)NCC(C)(C)C)nn1C (configuration not stated) | inactive: 12%
CC1CCN(C(=O)c2ccc(NC(=O)c3cccs3)cc2)CC1 | inactive: 14.5%
CC(=O)c1cccc(NC(=O)c2cc(-c3cccs3)on2)c1 | inactive: -3.24%
NC(=NC(=O)c1ccccc1)N1N=CCC1c1ccccc1 (configuration not stated) | inactive: 13.1%
Cc1nc2ccccc2c(=O)n1/N=C/c1cccs1 | inactive: 10.2%
Clc1ccc(Sc2cc(N3CCOCC3)nc(-c3ccccc3)n2)cc1 | inactive: -2.08%
O=C(Cn1cc(C(F)(F)F)ccc1=O)N/N=C/c1ccc(Cl)cc1Cl | inactive: 1.29%
CC1(C)OC(=O)C(=CNCCc2ccc(O)cc2)C(=O)O1 | inactive: -1.25%
O=C(Nc1nccs1)C1CC(=O)N(c2ccc(F)cc2)C1 (configuration not stated) | inactive: -2.28%
O=C(NCC1CCCN(C(=O)c2cscn2)C1)c1ccc(-c2ccccc2)cc1 (configuration not stated) | inactive: 5.36%
COC(=O)COc1ccc(S(=O)(=O)N2CCCCCC2)cc1C | inactive: 25%
COc1cc(C(=O)COC(=O)c2cccs2)cc(OC)c1OC | inactive: 4.76%
c1csc(-c2noc(CN3CCN4CCCC4C3)n2)c1 (configuration not stated) | inactive: 0.7%
CC(C)N(C)c1ncnc2c1ncn2[C@H]1CN(Cc2cccs2)C[C@@H](CO)O1 | inactive: 2.23%
COc1cccc(CNC(=O)CCc2c(C)nc3c4c(C)cc(C)nc4nn3c2C)c1 | inactive: 0.0353%
Cc1ccc(C)c(CN2C(=O)c3ccccc3S(=O)(=O)c3ccc(C(=O)NCCc4ccc(Cl)cc4)cc32)c1 | inactive: 3.81%

Compound | growth rescue (activation)
O=C(/C=C/c1ccco1)N1CCN(c2ncccn2)CC1 | inactive: 21.3%
CC(C)N(C(=O)Cn1c(SCC(=O)NC2CC2)nc2ccccc21)C(C)C | inactive: 4.4%
Cc1ccccc1Cn1nc(C)c(NC(=O)c2cc3nc(-c4ccco4)cc(C(F)(F)F)n3n2)c1C | inactive: -8.03%
O=C(CSc1nnc(NC(=O)c2c(F)cccc2F)s1)NC1CCCC1 | inactive: -8.43%
Cc1ccc(NC(=O)CN(C)C(=O)CSc2nccn2C)cc1 | inactive: -1.63%
CCc1ccc2c(c1)NC(=O)C2(C)Cc1ccc(Cl)cc1 (configuration not stated) | inactive: 15.5%
COc1ncccc1C(=O)N1CCC(n2nccc2NC(=O)CC(C)C)CC1 | inactive: 3.68%
COc1ccccc1NC(=O)CN1CCC(c2nc3ccc(C)cc3[nH]2)CC1 | inactive: -0.338%
Cc1cc(C)c(S(C)(=O)=O)c(=O)[nH]1 | inactive: -14.6%
COc1ccc(NS(=O)(=O)c2cc(N=Nc3c(O)[nH]c(=O)[nH]c3=O)ccc2Cl)cc1 | inactive: 0.529%
CCOC(=O)C1CCCN(C(=O)c2ccc([N+](=O)[O-])c(C)c2)C1 (configuration not stated) | inactive: -11.8%
Cc1cc(NCc2ccc(Cl)cc2)n2cnnc2n1 | inactive: 2.01%
COc1ccc(-c2nc3c(c(=O)n(C)c(=O)n3C)n2CC2CC(c3ccccc3)=NO2)cc1OC (configuration not stated) | inactive: -4.32%
C/C(=N\NC(=O)c1ccc2c(c1)OCO2)c1ccc2c(c1)OCO2 | inactive: 2.73%
c1ccc(-c2cn3c4c(sc3n2)CCCC4)cc1 | inactive: -18.8%
CC(=O)c1ccc(NC(=O)COC(=O)CCN2C(=O)c3cccc([N+](=O)[O-])c3C2=O)cc1 | inactive: -0.781%
CCn1c(CC(=O)Nc2ccc(OC)cc2)nnc1SCC(=O)N1CCOCC1 | inactive: 4.94%
CCCC(=O)N1CCC1(C)C(=O)Nc1ccccc1C(C)(C)C (configuration not stated) | inactive: -4.59%
COc1ccc(OCC(=O)NCCNC(=O)c2cccnc2)cc1 | inactive: 3.73%
CCOC(=O)N1CCN(S(=O)(=O)c2ccc3c(c2)NC(=O)CO3)CC1 | inactive: 2.18%
COC(=O)c1ccccc1NC(=S)N(Cc1ccc2c(c1)OCO2)Cc1cc2cccc(C)c2[nH]c1=O | inactive: 3.9%
C=CCn1c(C(C)C)nc2ccccc21 | inactive: 1.43%

Compound | growth rescue (activation)
Cc1ccccc1C(=O)NC1CCN(CC(=O)NCc2ccc(F)cc2)CC1 | inactive: 8.13%
CCCC(C)C(=O)Nc1cc([N+](=O)[O-])ccc1F (configuration not stated) | inactive: 22.6%
O=C(Cn1nnc(-c2ccccc2NC(=O)c2ccccc2F)n1)NC1CCCC1 | inactive: -5.13%
CCOC(=O)c1cc(NC(=O)Nc2nc3ccccc3s2)c(C)nc1C | inactive: 12.1%
O=C(CCc1nnc(COc2ccccc2)o1)NCc1ccc(Cl)s1 | inactive: 13%
CC(=O)ON1C(C)(C)Cc2noc(N)c2C1(C)C | inactive: 14.7%
Cc1ccc(NC(=O)CN(C)C(=O)c2n[nH]c(=O)c3ccccc23)cc1 | inactive: 1.23%
Cc1ccccc1Cn1c(=O)n(CCCCCC(=O)NCc2ccc3c(c2)OCO3)c(=O)c2sccc21 | inactive: 2.71%
COc1ccc(C2CC(=O)n3c(nc4ccccc43)S2)cc1OC (configuration not stated) | inactive: 5.73%
O=C(COC(=O)C1=COCCO1)Nc1ccccc1 | inactive: -1.38%
CCC(C)(C)n1nnnc1C(c1cc(OC)ccc1OC)N1CCN(Cc2ccccc2)CC1 (configuration not stated) | inactive: 5.39%
Cc1ccc(NC(=O)CSc2nccc(=O)[nH]2)c(S(=O)(=O)N2CCOCC2)c1 | inactive: -21.8%
Cc1ccc(S(=O)(=O)Nc2ccc(NC(=O)c3ccc(F)cc3)cc2)cc1 | inactive: -9%
O=C(/C=C/c1ccco1)NC(=S)Nc1cc(-c2nc3ccccc3s2)ccc1Cl | inactive: -6.54%
CCCC(=O)Nc1ccc(NC(=O)c2ccccn2)cn1 | inactive: 25.2%
Nc1ncc2c(n1)-c1ccccc1CC2 | inactive: 20.4%
Cc1n[nH]c(=O)nc1NCc1ccco1 | inactive: 5.99%
C=CCOc1ccccc1CN1CCC(CO)(CCOc2ccccc2)CC1 | inactive: 5.69%
CC(C)Sc1nc2sc3c(c2c(=O)n1-c1ccccc1)CCCC3 | inactive: 4.44%
CN(C)S(=O)(=O)c1cc(NC(=O)COC(=O)Cc2ccc(Cl)cc2Cl)ccc1Cl | inactive: -0.874%
CCn1c(=O)c2ccccc2n(CC(=O)NC2CCCCC2)c1=O | inactive: -17.9%
CCOC(=O)C1=C(C)NC(=S)NC1c1ccc(OCC(=O)N2CCCCCC2)c(OC)c1 (configuration not stated) | inactive: -5.64%

Compound | growth rescue (activation)
COc1ccc(C2=NOC(C(=O)N(C)Cc3ccccc3)C2)cc1 (configuration not stated) | inactive: 27.6%
COc1ccc(C(C)=O)cc1COC(=O)c1ccc2ccccc2n1 | inactive: 20.7%
CCCc1c(C(=O)OCC)sc(N)c1C#N | inactive: -26%
O=C(NCc1cccs1)c1ccc2nc([C@@H]3O[C@H](CO)[C@H](O)[C@H](O)[C@H]3O)[nH]c2c1 | inactive: 10%
Cc1nn(CC(=O)Nc2ccc3c(c2)OCCO3)c(C)c1[N+](=O)[O-] | inactive: -5.52%
COC(=O)c1cc(NC(C)=O)ccc1N1CCOCC1 | inactive: 8.24%
COc1cccc(CNC(=O)CCC2CCCN(C(=O)c3csc(C(C)C)n3)C2)c1 (configuration not stated) | inactive: 4.39%
O=C(N/N=C/c1ccc(O)c2ncccc12)c1cccc(Br)c1 | inactive: -73.5%
CC(=O)Nc1ccc(S(=O)(=O)NCC(=O)OCC(=O)NC23CC4CC(CC(C4)C2)C3)cc1 | inactive: -2.88%
CN(C)CCCNC(=O)c1ccc(/C=N/O)nc1 | inactive: -0.939%
CN(CC(=O)Nc1ccc2c(c1)OCO2)S(=O)(=O)c1cccs1 | inactive: 12.1%
C(=N\Nc1nncc2ccccc12)/c1ccccn1 | inactive: 1.63%
Cc1nnc(SCC(=O)Nc2ccc(C(N)=O)cc2)n1-c1ccccc1 | inactive: -13.6%
COc1ccc(OCC(=O)N(Cc2ccc(C)o2)C2CCS(=O)(=O)C2)cc1 (configuration not stated) | inactive: 5.06%
O=C(Nc1ccc(F)c(Cl)c1)c1cncs1 | inactive: 18.4%
Cn1c(=O)c2c(ncn2CC(=O)N2CCOCC2)n(C)c1=O | inactive: -2.49%
Cc1c(CC(=O)N2CCN(C(=O)C3COc4ccccc4O3)CC2)c(=O)oc2c(O)c(O)ccc12 (configuration not stated) | inactive: -0.773%
CN1CCN(CCNC(=O)c2cn(Cc3ccccc3F)nn2)CC1 | inactive: -5.42%
CC/C(=N\NC(=O)CSCc1ccccc1Cl)c1ccc2c(c1)OCCO2 | inactive: 15.1%
CC(=O)Nc1cc(-c2cccc(C(=O)NCCO)c2)cn2c(-c3ccc(F)c(Cl)c3)cnc12 | inactive: 1.99%
Cc1c(C(=O)N2CCN(c3ccc(F)cc3)CC2)sc2ncnc(N3CCN(c4ccccn4)CC3)c12 | inactive: 12.6%
CC(/C=C/C=C/c1ccccc1)=N/NC(=O)C(O)c1ccccc1 (configuration not stated) | inactive: 7.21%

Compound | growth rescue (activation)
Cn1ccnc1C1CCCCN1C(=O)c1cc(COc2ccc(F)cc2Cl)on1 (configuration not stated) | inactive: 4.31%
CC(OC(=O)c1ccc(NS(=O)(=O)c2ccc3[nH]c(=O)[nH]c3c2)cc1)C(N)=O (configuration not stated) | inactive: 9.89%
COc1ccc(NC(=O)CN2C(=O)C(c3ccc(C)cc3)=NC23CCCCCC3)cc1Cl | inactive: 20.2%
COc1ccc(C2=NN(S(C)(=O)=O)C(c3cccs3)C2)cc1OC (configuration not stated) | inactive: 16.3%
CCOc1ccc(-n2c(C)cc(/C=N/Nc3nc(C)cc(=O)[nH]3)c2C)cc1 | inactive: 13.2%
Cc1ccc(/C=C/c2nc3sc(C(=O)O)c(C)c3c(=O)[nH]2)cc1[N+](=O)[O-] | inactive: 20.5%
CC1CCCCN1C(=O)CSc1nc2c(c(=O)n(C)c(=O)n2C)n1C (configuration not stated) | inactive: 9.34%
CC(=O)c1ccccc1NC(=O)COC(=O)CCCN1C(=O)c2cccc3cccc(c23)C1=O | inactive: -17.4%
C(=C\c1ccccc1)/CSc1nc2ncccc2[nH]1 | inactive: 21.2%
Cc1ccccc1NC(=O)NC1(C(=O)NCc2ccco2)CCCCC1 | inactive: 19.6%
CCCc1nc2nc(C)c(NS(=O)(=O)c3ccc(C(C)(C)C)cc3)c(=O)n2[nH]1 | inactive: -3.59%
O=C(COC(=O)CC1CC2CCC1C2)NCc1ccccc1 (configuration not stated) | inactive: 17.8%
Nc1ccc2nc(SCC(=O)N3CCOCC3)sc2c1 | inactive: 7.66%
CC1=C(C(=O)N2CCOCC2)C(c2c(C)cc(C)cc2C)NC(=S)N1 (configuration not stated) | inactive: -10.2%
O=C(O)C1CC=CCC1C(=O)N1CCCC1 (configuration not stated) | inactive: -7.18%
Cc1nnc(N2C(=O)C(O)=C(C(=O)c3ccco3)C2c2cccc([N+](=O)[O-])c2)s1 (configuration not stated) | inactive: -0.553%
COC(=O)c1ccccc1S(=O)(=O)NNC(=O)c1nn(C)c(=O)c2ccccc12 | inactive: 0.176%
CCC(C)NC(=O)C1c2ccccc2C(=O)N1Cc1ccc(F)cc1 (configuration not stated) | inactive: 7.25%
CCCOc1ccc(C(=O)Nc2ccc(S(=O)(=O)Nc3onc(C)c3C)cc2)cc1 | inactive: -6.09%
